Measurements taken from the RNAGym collection of RNA variant scans (doi:10.1073/pnas.2313332121).
Variants at the background level are over-represented here.

B1: TPR 5TU (parent)
chain: GGAUCUUCUCGAUCUAACAAAAAAGACAAAUCUGCCACAAAGCUUGAGAGCAUCUUCGGAUGCAGAGGCGGCAGCCUUCGGUGGCGCGAUAGCGCCAACGUUCUCAACUAUGACACGCAAAACGCGUGCUCCGUUGAAUGGAGUUUAUCAUG

Variants of: B1
Assay: polymerase ribozyme fitness, log enrichment relative to wild type (log ratio); higher = more active; in vitro selection for triplet polymerase activity
How it was run: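 Mutant libraries of both subunits of a heterodimeric triplet polymerase ribozyme were PCR-built, transcribed, and selected once in triplicate, with frozen incubation at −7 °C and capture of gel-excised extended constructs on streptavidin beads before RT-PCR. Illumina sequencing of input and output libraries was filtered to genotypes with ≥10 input reads and ≥1 read per output. Fitness is the logarithm of genotype enrichment over wild-type enrichment, using inverse-variance-weighted replicate averages. The logarithm is base 2.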

Polymerase ribozyme fitness (log ratio), ≤ -4.2:
GGAUCUUCUCGAUCUAACAAAAAAGACAAAUCUGCCACAAAUCUUGAGAGCAUCAUCGGAUGCAGAGGCGGCAGCCUUCGUUGGCGCGAUAGCGCCAACGUGCUCAACUAUGACACGCAAAACGCGUGCUCCGUUGAAUGGUGUUUAUCAUG [G42U U55A G81U U102G A142U]
GGAUCUUCUCGAUCUAACAAAAAAGACAAAUCUGCCACAAAUCUUGAGAGCAUCAUCGGAUGCAGAGGCGGCUGCCUUAGGUGGCGCGAUCGCGUCAACGUUCUCAACUAUGACACGCAAAACGCGUGCUCUGUUGAAUGGAGUUUAUCAUG [G42U U55A A73U C79A A91C C95U C132U]
GGAUCUUCUCGAUCUAACAAAAAAGACAAAUCUGCCACAAAUCUUGAGAGCAUCUUCGGAUGCAGAGGCGGCAGCCUUCGGUGGCUCGAUAGCGCCAACGUUCUCAAUUAUGACUCGCAAAACGUGUGCUCCGUUGAAUGGAGUCUAUCAUG [G42U G86U C108U A115U C125U U145C]
GGAUCUUCUCGAUCUAACAAAAAAGACAAAUCUGCCACAAAUCUUGAGAGCAUCUUCGGAUGCAGAGGCGGCAGCCUUCGGUGGCGCGAUAGCGCCAACGUACUCAACUAUGACACGUAAAACGCGUGCUCCGUUGCAUGGAGUUUGUCAUU [G42U U102A C118U A137C A147G G152U]
GGAUCUUCUCGAUCUAACAAAAAAGACAAAUCUGCCACAAAUCUUGAGAGCAUCUACAGAUGCAGAGGCGGCAGCUUUCGGUGGCGCGAUAGCGGCAGCGUUCUCAACUAUGACACGCAAAACGCGUGCUCCGUUGAAUGGAGUUUAUCAUG [G42U U56A G58A C76U C95G A98G]
GGAUCUUCUCGAUCUAACAAAAAAGACAAAUCUGCCACAAAGAUUGCGAGCAUCUUCGGAUGCAGAGGCGGCAGCCUUCGGUGGCGCGAUAGCGCCAACGUUCUCAACUAUGACACGCAAAACGCGUGCUCCGUUGAAUGGCGUUUAUCAUG [C43A A47C A142C]
GGAUCUUCUCGAUCUAACAAAAAAGACAAAUCUGCCACAAAGAUUGAGAGCAUCUUCGGAUGCCGAGGCGGUAGCCUUCGGUGGCGCGAUAGCGCCAACGUUCUCAACUAUGACACGCAAAACGCGUGCUCCGUUGAAUGGAGUUUAUCAUG [C43A A64C C72U]
GGAUCUUCUCGAUCUAACAAAAAAGACAAAUCUGCCACAAAUCUUGAGAGCAUCUUCGGAUGCAGAGGCGGCAGCCUUCGAUGGCGCGAUAGCGCCAACGUUCUCAACUAUGACACGCAAAAAGCGUGCUCCGUUGAGUCGAAUUUAUCAUG [G42U G81A C123A A138G G140C G143A]
GGAUCUUCUCGAUCUAACAAAAAAGACAAAUCUGCCACAAAUCUUGAGAGCAUCUUCGGAUGCAGAAGCGGCAGCCUUCGGUGGCGCGAUAGCGCCAACGUUCUCAACUAUGACACGCAAAACGCGUGCUCCGUUGAAUGGAGUUUAUCAUG [G42U G67A]
GGAUCUUCUCGAUCUAACAAAAAAGACAAAUCUGCCACAAAUCUUGAGAGCAUCUUCGGAUGCAGAGGCGGCAGCCUUCGGUCGAGCGAUAGCGCCAACGUUCUCAACUAUGACACGCAAAACACGUGCUCCGUUGAAUGGAGUUUAGCAUG [G42U G83C C85A G124A U148G]
GGAUCUUCUCGAUCUAACAAAAAAGACAAAUCUGCCACAAAGAUUGAGUGCAUCUUCGGGUGCAGAGGCGGCAGCCUUCGGUGGUGCGAUAGCGCCAACGUUCUCAACUAUGACACGCAAAACGCGUGCUCCGUUGAAUGGAGUUUAUCAUG [C43A A49U A60G C85U]
GGAUCUUCUCGAUCUAACAAAAAAGACAAAUCUGCCACAAAUCUUGAGAGCAUCUUCGGAUGCAGAGGCGGCACCCUUCGGUGGCGCGAUAGCGCCAACGUUCUCAACUAUGACACGCAAAACGCGUGCUCCGUUGAAUGGAGUUUAUCAUG [G42U G74C]
GGAUCUUCUCGAUCUAACAAAAAAGACAAAUCUGCCACAAAUCUUGAGAGCAUCAUCGGAUGCAGAGGCGGCAGCCUUCGGUGGCGGGAUAGCGCCAACGUUCUCAACUAUGACAGGAAAAACGCGUGCUCCGUUCAAUGGAGUUUAUCAUG [G42U U55A C87G C116G C118A G136C]
GGAUCUUCUCGAUCUAACAAAAAAGACAAAUCUGCCACAAAUCUGGAGAGCAUCUUCGGAUGCAGAGGUGGCAGCCUUCGGUGGCGCGAUAGUGCCAACGUUCUCAACUAUGACACGCAAAACGCGUGCUCCGUUGAAUGGAGUUUAUCAUG [G42U U45G C69U C93U]
GGAUCUUCUCGAUCUAACAAAAAAGACAAAUCUGCCACAAAUCUUGAGAGCAUCUUCGGAUGCAGAGGCGGCAGCCCUCGGUGGCGCGAUGGCGCCAACGUUCUCAACUAUGACACGCAAAACGCGUGCUCCGUUGAAUGGAGUUUAUCAUG [G42U U77C A91G]
GGAUCUUCUCGAUCUAACAAAAAAGACAAAUCUGCCACAAAGAUUGAGAGCGUCUUCGGAUGCAGAGGUGGCAGCCUUCGGUGGCGCGAUUGCGCUAACGUUCUCUACUAUGACACGCAAAACGCGUGCUCCGUUGAAUGGAGUUUAUCAUG [C43A A52G C69U A91U C96U A106U]
GGAUCUUCUCGAUCUAACAAAAAAGACAAAUCUGCCACAAAUCUUGAGAGCAUCUUCGGAUGCAGAGGCGGCAGCCUUCGGUAGCGCGAUAGCGCCAACGUUCUCAACUAUGACACGCAAAACGCGUGCUCCGUUGAAUGGGGUUUAUCAUG [G42U G83A A142G]
GGAUCUUCUCGAUCUAACAAAAAAGACAAAUCUGCCACAAAGAUUGAGAGCAUCUUCGGCUGCAGAGGCGGCAGCCUUCGGUGGCGCGAUAGCGCCAACGUUCUCAACUAUGACACGCAAAACGCGUGCUCCGUUGAAUGGAGUUUAUCAUG [C43A A60C]
GGAUCUUCUCGAUCUAACAAAAAAGACAAAUCUGCCACAAAUCUUGAGAGCAUCUACGGAUGCAGAGGCGGCAGACUUCGGUGGCGCGAUAGCGUCAACGUUCUCAACUAUGACACGCAAAACGCGUGCUCCGUUGAAUGGAGCUUAUCAUG [G42U U56A C75A C95U U144C]
